From the RNAGym collection of RNA variant scans (doi:10.7554/elife.90254)
The source gives no read counts; variants with many changes may rest on few reads.

B1: LINE1-mini (parent)
chain: GGCAGAGCUCAACACAGCGUGGCAAAGUGGCUGUGGCUAGACUGCC

Variants of: B1
Experiment: self-cleavage, relative activity (ratio to wild type); higher = more cleavage; in vitro, sequencing; the parent is a self-cleaving ribozyme

Row | Variant | self-cleavage
1 | GGCAGAGCUCGAAACAGCGUGGCUAAGUGGCUGUGGCUAGCCUGCC | 0.01
2 | GGCAGAGCUCGACACAGCAUGGCAAAGUGGCUGUGGCUAGACUGUA | 0.01
3 | GGCAGAGCUCGACACACCGUGGCAAAGUGGCUGUGGAUAGACUGCC | 0.02
4 | GGCAGAGCUCGACACCGCGUGGCAAAGUGGCUGUGGCUAGAAGGCC | 0.03
5 | GGCAGAGCUCGAUACGGCGUCGCAAAGUGGCUGUGGCUAGACUGCC | 0
6 | GGCAGAGCUCGACAAAACCUGGCGAAGUGGCUGUGUCUAGACUGCC | 0.02
7 | GGCAGAGCUCGAUACAGCGUGGCAAAGUUGCUGUGGCUAGACUGCC | 0.03
8 | GGCAGAGCUCGACAGAGCGUGGCAAAGUGGGUGUGGCUAGACGCCC | 0
9 | GGCAGAGCUCGACACAGCGUGGCACAGUGGCUUUGGCUAGACUGCC | 0.02
10 | GGCAGAGCUCGAGACAGCGUGGCAAAGUGGCUGUGGCCAGACUGCC | 0.03
11 | GGCAGAGCUCGACACAGCACGGCAAAGUGGCUGUGUCUAGACUGCC | 0
12 | GGCAGAGCUCGACAAAGAGUGGCAAAGUAGCUGUGGCUAGACUGCC | 0.01
13 | GGCAGAGCUCGACAAAGCGUUGCAAAGUGGCUGUGGCUAGACUGCC | 0.02
14 | GGCAGAGCUCGACACAGCAUGGCAAAGUGGCUGUGGCUAGUCUGCC | 0.01
15 | GGCAGAGCUCGAAACAGCGUAGCAAAGUGACUGGGGCUAGACUGCA | 0
16 | GGCAGAGCUCGACACAGGGUGCCAUAGUGGCUGUGGCUAGCCUGCC | 0.01
17 | GGCAGAGCUCGACACACAGUGGCAAAGUGGCUGUGGGUUCACUGCC | 0
18 | GGCAGAGCUCGACAGAGCAUGCCAAGGAGGCUGUGGCUAGAGUGCC | 0.01
19 | GGCAGAGCUCGACACAUCGUGGCAAAGUGUCUGUGGCUAGACCGCC | 0.01
20 | GGCAGAGCUCGACACACCGUGGCAAAGUGGCUGCGGAUAGACUGCC | 0.01
21 | GGCAGAGCUCGACACUGCGUGGCAAAGUGGCUGUGGAUAGACUGCC | 0.03
22 | GGCAGAGCUCGACACAGCGUGGGAAAGUGGCUGGGGCUAGACUGCC | 0.02
23 | GGCAGAGCUCGACACAGAGUGGCAAAUUGGCUGUGGCUAGACUACC | 0.02

Row | Variant | self-cleavage
24 | GGCAGAGCUCGACAAAGCUUGGCAAAGUGGCUGGGGCUAGACUGCC | 0.02
25 | GGCAGAGCUCGACAUAGCGUGGCAAAGUGGCUGUAGCUAGACUGCC | 0.03
26 | GGCAGAGCUCGACACAGCGUGGGAAAGUGGCUGUGGCUGGACUGCC | 0.01
27 | GGCAGAGCUCGACACACCGUCGCAAAGUGGCUGUGGCUAGACUGCC | 0.04
28 | GGCAGAGCUCGACACAGCGUACCAAAGCGGGUUUGGCUAGACUGCC | 0.01
29 | GGCAGAGCUCGAAACAGCGUGGCAAAGUGGCUGUGGCUAGACUGAU | 0.02
30 | GGCAGAGCUCGACACAGCGUGGAAAAGUGGCUGUGUAUAGACAGCC | 0.01
31 | GGCAGAGCUCGACACAGCGUGGCCAAGUGGAUGUGGCUAGGCUGCC | 0.01
32 | GGCAGAGCUCGACACAGCGUUGCAAAGUGGCUGUGGCUAGCCUGCC | 0.02
33 | GGCAGAGCUCGAAACAGCGUGGCAAAGUUGCUGUGGCUAGACUGCC | 0.06
34 | GGCAGAGCUCGACAGAGUGUGGGAAAGUGGCUGUGGUUAGACUGCC | 0
35 | GGCAGAGCUCGAUACAGCGUGGCAAUGUGGCUGUGGCUAGACUGCC | 0
36 | GGCAGAGCUCGACACAGCGUAGCAAAGUGGCUGUGGCUAGGCUUCC | 0.01
37 | GGCAGAGCUCGACACAGCGUGGUAAAGUUGCUGUGGCUAGACUGCC | 0.02
38 | GGCAGAGCUCGAAACAGCGUGGCAAAGUGGCUGUGGCGAGACUGCC | 0.01
39 | GGCAGAGCUCGAGACAACGUGGCAAAGUGGCUGUGGCUAGACUGCC | 0.04
40 | GGCAGAGCUCGACACAGCUUGGCAAAGUGGGUUUGGCUAGACUGCC | 0.02
41 | GGCAGAGCUCGAGACAGCGUGGCAAAGUGGCUGUGGCUAGCCUGCC | 0.02
42 | GGCAGAGCUCGAAACAGCGUGGCAAAGUGGCUGUGACUAGACUGCC | 0.02
43 | GGCAGAGCUCGACGCAGCAUGGAAAAGUGGCUGUGGCUAGACUGCC | 0.02
44 | GGCAGAGCUCGACAUAGCGUGGCAAAGUGGCUGUGGCUAGAGUGCA | 0
45 | GGCAGAGCUCGACACAGCGUGGCAAAGUGGCUGUGGUUAGACUGCU | 0.01
46 | GGCAGAGCUCGACACAGCUUGGCAAAGUGGCUGUGGCUAGCAUGCC | 0.01

Row | Variant | self-cleavage
47 | GGCAGAGCUCGACACAGCGUGGCGAAUUGCCUGUCGCUGGACUGCC | 0.01
48 | GGCAGAGCUCGACUCAGCGUGGCACAGCGGCUGUGGCUAGACUGCC | 0.05
49 | GGCAGAGCUCGACACAGAGUGGCAAAGUGGCAGUGGCUAGACUGGC | 0.01
50 | GGCAGAGCUCGACACAGCGUGGCAAAGUGGCUGUGGGUAGAUUGCC | 0
51 | GGCAGAGCUCGACACGGCAUGGCAAAGUGGCGGUGGCUAGACUGAG | 0.02
52 | GGCAGAGCUCGACACAGGGUGGCAAAGUGGCUGUUACUACACUGCC | 0.03
53 | GGCAGAGCUCGACACAGCGUAGUAAAGUGGUUGUGGCUAGACUGCC | 0.03
54 | GGCAGAGCUCGACAAAGCGUGGCCAAGUGGCUGUGGCUAGACUGCC | 0.02
55 | GGCAGAGCUCGACACACCGUGGCAAAGUGGCUGUGGCUAGUCUGCC | 0.01
56 | GGCAGAGCUCGAAACAGCGCGGCAAAGUGGCUGUGGCUAGACUGCC | 0.04
57 | GGCAGAGCUCGACACAGAGUGGCAAAUUGGCUGUGGCUAUACUGCC | 0
58 | GGCAGAGCUCGACAUAGCGUGGCAAAGUGGAUGUGGCUAGACUGCC | 0.03
59 | GGCAGAGCUCGACACAGCCUGGCAAAGUGGCUGUGGCUAGACUGUC | 0
60 | GGCAGAGCUCGAGACAGCGUGGCACAGUGGCUGUGGCUAGACUGCC | 0.02
61 | GGCAGAGCUCGACACAGCGUGGCAAAGUGGAUGUGGUUAGACUGCC | 0.01
62 | GGCAGAGCUCGACACAGCGUGACAAAGUGGCUGUGGCUAGACUGGC | 0.03
63 | GGCAGAGCUCGACAUGGCGUGGCAAAGUGGCUGUGGCUAGACUGCC | 0.01
64 | GGCAGAGCUCGACACAGCCUGGCACAGUGGCUGUGGCUAGACUGCC | 0.01
65 | GGCAGAGCUCGACACAGAGUGGCAAAGUGGCUGUGGCUAGGCUGCC | 0.02
66 | GGCAGAGCUCGACACUGCGUGGCAAAAUGGCUGUGGCUAGACUGCC | 0.04
67 | GGCAGAGCUCGACACAGCAUGGCAAAGUGGCUGCGGCUAGACUGCC | 0.02
68 | GGCAGAGCUCGACACAGCGUGGCAACGUUGCUGUGGCUAGACUGCC | 0.01
69 | GGCAGAGCUCGACACAGCCUGGCGAAGUGGCUGUGGCUAGACUGCC | 0

Row | Variant | self-cleavage
70 | GGCAGAGCUCGACACAGCCUAGCAAACUGGCUGUGGGUAGGUUGCC | 0
71 | GGCAGAGCUCGACACACUGUGGCGAAGUGGCUGUGGCUAGACUGCC | 0.02
72 | GGCAGAGCUCGACUCAGCGUGGCGAAGUGGCUGUGGCUAGACGGCC | 0
73 | GGCAGAGCUCGACACGGAGUGGCAAAGUGGCUAUCGCUAGACUGCC | 0.02
74 | GGCAGAGCUCGACAUAGCGUGGCAAAGUGGCUGUGGCUAGACUGCA | 0.08
75 | GGCAGAGCUCGACACCGCGUGGCAAAGUGGCUGUUGCUAGACUGCC | 0.01
76 | GGCAGAGCUCGACGCAGCGUGGCAAAGUGGCAUUGGCUAGACUGGC | 0.01
77 | GGCAGAGCUCGACACAGCGUGGGAAAGUGGCUGUGGCUAGACUGGC | 0.01
78 | GGCAGAGCUCGACACAGCGUGGCAAAGUGGGUGUGGCUAGGCUGCC | 0.01
79 | GGCAGAGCUCGACACAGCCUGGCAAAGUGGCUGUGGCUAGAAUGCC | 0.01
80 | GGCAGAGCUCGACACACCGUGGCAAAGUGGCUGUGGCUAGACUGCG | 0.01
81 | GGCAGAGCUCGACACAGCGUGGUAAUGUGGCUGUGGCUAGACUGCC | 0.04
82 | GGCAGAGCUCGACAAAGCGUGGCAAAGUGGCUGUGGCUAGUCUGCC | 0.03
83 | GGCAGAGCUCGAAACAGCGUGGCAAAGUGGCUGUGGCUAGUCUGCC | 0.02
84 | GGCAGAGCUCGACACAGCGUGGCAAGGUGGCUGUGGCUAGAUUGCC | 0.06
85 | GGCAGAGCUCGAGACAGCGUUGCAAAGUGGCUGAGGCUAGACUGCC | 0
86 | GGCAGAGCUCGACACAGCGUGGGAAAGUGGCAAUGGCUAGACUGCC | 0
87 | GGCAGAGCUCGACACAGCGUGGCAAUAUGGCUGUGGCUAGACUGCC | 0.01
88 | GGCAGAGCUCGACACAGCGUGGCACAGUGGCUGUGGCUAGAGGGCC | 0.01
89 | GGCAGAGCUCGAGAUAACGUGGCAAAGUGGCUAUGGCAAGACUGCC | 0.02
90 | GGCAGAGCUCGAUACAGGGUGGCAAAGUGGCUGUGGCUAGACUGCC | 0.02
91 | GGCAGAGCUCGACACAGCAUGGCAAAGAGGCUGUGGCUAGAACGCC | 0
92 | GGCAGAGCUCGACACAGAGUGGCAAAAUGGCUGGGGCUAGUCUGCC | 0.01

Row | Variant | self-cleavage
93 | GGCAGAGCUCGACACAGCGUGGCCAAGUGGCUGUGGCUAGACUGCU | 0
94 | GGCAGAGCUCGACACUGCGUGGCAAAGUGGCUGUCGCUGGACUGCC | 0
95 | GGCAGAGCUCGACACAGCGUGGCAAAGUGGCUGUGGGUAGACUUCC | 0.01
96 | GGCAGAGCUCGACACAGCGUGGAAAAGUGGCGGUGGCUAGACUGCC | 0.02
97 | GGCAGAGCUCGACACAGCGUGGCUAAGUGGCUGUGGAUAGACUGCC | 0.03
98 | GGCAGAGCUCGACACAUCGUGGCAAGGUGGCUGUGGCUAGACUGCC | 0.01
99 | GGCAGAGCUCGACACAGCGUGGCGAAGUGGCUGUUGCUAGAAUGCC | 0
100 | GGCAGAGCUCGACACAGUGUGGCAAAGGGGCUGUGGCUAGACUGCC | 0
101 | GGCAGAGCUCGACAAAGCGUGGCAAAGUGGAUGUGACUAGGCUGCC | 0.01
102 | GGCAGAGCUCGACACAGCGUGGCCAAGUGGCAGUGGCUAGACUUCC | 0.03
103 | GGCAGAGCUCGACUCAGCGUGGCAAAGUGGCUGUGGGUAGACUGCC | 0.01
104 | GGCAGAGCUCGAGACAGCGUGGCAAAAUGGCUGUGACUAGACUGCC | 0.05
105 | GGCAGAGCUCGACAUAGCGCGGCAAAGUGGCUUUGGCUAGACUGCC | 0.01
106 | GGCAGAGCUCGACACAUCGUGGCAAAGUGGCUGUGUCUAGACUGCC | 0.02
107 | GGCAGAGCUCGACACAGCGUGGCAUAGUGGCUGUGACUAGACUGUC | 0
108 | GGCAGAGCUCGACACAGCGUGGCCAAGUGGCUGUGGCUAGACUGUC | 0.03
109 | GGCAGAGCUCGACACAGGGUGGCAAAGUGGCUGUGGCUAGACUGAC | 0.01
110 | GGCAGAGCUCGACACAACGUUGCAAAGUGGAUGUGGCUAGACUGCC | 0.01
111 | GGCAGAGCUCGACACAGUCUGGCAAAGUUGCUGUGGCUAGACUGCC | 0.04
112 | GGCAGAGCUCGACACAGCGUGGCAAAGUGGCUGUGGUUGGACUGCC | 0.01
